# Measured values from the supplement of paper PMC12632987.
# Over roughly 2,300 sequences, “median log2 fold change of GCK-ALFA target abundance (FLAG IP / Myc IP barcode read proportion)” has its median near 0.095; the lowest 2% begin near -0.47. Some of the results follow.
# B1: LC3A_17_596 (protein)
# chain: MEELKEELKRLLKEAEELIKKLKELRPEAYPELAAQLEKAKKLIEEGKLYEAAKQLAELARQIADIFDELEEEGVEEAAPLEMEAGGIEVEAERLLLKLE
# B2: LC3A_3_1913 (protein)
# chain: MEEKLKKLEEQAKKLGHSEEVIKLALEAAKLFLEAGDEEGFELLFEMLKALKGLDEGTQKAFLEDLLAELKKLGNDKEARLKAAKEFLKLAKNANEIIEI
# B3: LC3A_28_877 (protein)
# chain: MSVEEALERARAEVEAAVARGEEALVEVDITEPISEEEARELVRGLEEIVRLGASLPRLDIVISLSRAVSEEAQNIIADGAERIEERYPHVTVIIALEEE
# B4: LC3A_free_46_2365 (protein)
# chain: MEIDIDILAEGKSEEEVEAIAKELKERIKKAAEEEGAEVEIEVEISKDEDGNWFIRVRIKVKAKTKEQKQAVVQKIVEIVDEISEEEGVAAIINIEDIEE
# B5: LC3A_free_26_2130 (protein)
# chain: SDFIDIYALDEALDYIEEAIKLLEEKGGKYKELLKLLKEAKKLLEEETLESLKKALELLKKAKKLIKEKKPEDPEFAKKLLELLERAIKLLEEVIEIMES
# B6: LC3A_free_8_2488 (protein)
# chain: SSKELATLASNLLSEFEEELVKKAKELGADRLDILELELEIGEIIAEVISLSDESPEKILEAVKEGLERVIEIAKEISEELAELAKKLSEKVIKEIEKAI
# B7: LC3A_147_489 (protein)
# chain: MEVDIDILVKDEETAKELVEKIKEIVEELKKEGIEVELKIEISKIEEGEYYVEVTITIKAETKEKEEEAANKVVKKVDEIIEENKDRVLAALISISEIEE
# B8: LC3A_28_1212 (protein)
# chain: SPTEEAIKKIKEQFEKAIKSGEPTAIVVEITKEITLEGAKEIMDAIEEEVEKAKDLKGLSIVIDVEEGVSQEVIDLIAERADEIEKKYPNVTVIIALEEE
# B9: LC3A_28_708 (protein)
# chain: NPLEESIKKALEEAKAAAKAGESTVITIKVPGSATEEDIEKLIKALEEIAEITKDLPSTSIIIDVDGGVKQEHIDKIADAAEEIEKKYPNVTVIIALDET
# B10: LC3A_free_8_2553 (protein)
# chain: DSQEFANKVSDIIDKAEEEISKVLEEAGVDPIKRLELELGLGEIKAEVVSLSDKSKEEILKATLEGLKEVKKLAEELDEETRKKVLEILDKAEKEIKSLL
# B11: LC3A_free_39_2270 (protein)
# chain: SPEEKEKALKRLEELKKKLSPEAQKALDEAVELAKDNVELLKVIAEKVEEALEEGADVLRLLKKAVEVLKQGQAAGLSPEELTKAVEEAMREEILLEPID
# B12: LC3A_147_437 (protein)
# chain: YKAVVDVDILTKNAEEEVLAHFEKIAEELKKQGYKVTLEIDVEKLENGETYIDATITVEAPTEEEAQKAADYIVDSIDELEEKLKDKVLGSIISVEISKL
# B13: LC3A_132_263 (protein)
# chain: SEELLEEALEELKEIADKIVDALAAGKDPWPYIVELDKKFEEYAEKLSLEETEELADEVLAHFRELAAKRLDPNDPEARRVLDIVEMLFEGVLIEKELKE
# B14: LC3A_147_455 (protein)
# chain: MLYEIDVDILFRNDPELVEEVEEKLKEIAEKYGGEVEVKREVIQETPTTTEYFLHVKITFEDEEKAKAALDEVDKLIEETAKKHPEKFLGSMISFDKIEK
# B15: LC3A_28_1242 (protein)
# chain: MEIEEQIERAKREVEEARARGEEALVTLKVGGDAEPEDVDKVIEAMEEIAELGKDLPRLDIIVDVSRGVPQEHIDKLADAGEEIEERYPNVTVIIALEER
# B16: LC3A_28_1070 (protein)
# chain: SAIDEQLAAALAEAREAAARGEELLVTLTIPADATEEDVEKVLATMEEIAEIAKDLPSVSIIVDVDTPNQEEVTKKVSEKGDELEKKYPHVNVIIALDEE
# B17: LC3A_28_1002 (protein)
# chain: NEIKKNLEEALKEAKKAKEENKPVVLTIKVSGKATEEDIELIIEKLEEIAEILKDIKGAAIIIDIDGKVKQEFIDKLLEKGEEIEKKYPNVTVIFALDED
# B18: LC3A_28_1118 (protein)
# chain: SLAEKVIKAFEKQVEAAIASGEETLIEVEVSPELSQEEVEKLAKKMAEYAKKAAEKLKVSVLVSVEKGVSQEKIDIIADEAEKVEEEYPNVNVIIALEEE
# B19: LC3A_3_1572 (protein)
# chain: MEELIEESLERLREAGFSEEVIEAAREAFEALAEKGLEESIKAVTETLLELKDAPEELLLDLLEDVKELVETDKSSKEELEKKIKELLRVYRNESEIIEL
# Target: MAP1LC3A, Q9H492
# Assay: median log2 fold change of GCK-ALFA target abundance (FLAG IP / Myc IP barcode read proportion) (log2 ratio); each designed protein is fused to an ALFA-tag nanobody in HEK293 cells to bring the named protein to FLAG-tagged glucokinase (GCK); Myc marks an untargeted standard; higher = target protein stabilised (more abundant)
# Conditions: target protein: 3xFLAG-MCP-GCK-ALFA reporter; HEK293 landing pad (RPLP)
# Procedure, shortened: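 Sequencing of reverse-transcribed, amplified circular RNA barcodes from anti-FLAG and anti-Myc immunoprecipitates provided the readout for an ALFA-nanobody-fused binder library recombined into HEK293 landing-pad cells. Those cells were induced with 2 μg mL^−1 doxycycline, transfected with a plasmid expressing a FLAG-tagged target and a Myc-tagged standard, and lysed after 48 h. Target abundance is the per-binder median log2 ratio of FLAG to Myc barcode read proportions. Only barcodes at a proportion of ≥10^−7 in both replicates and binders with ≥3 barcodes per replicate were kept, with a 10^−6 pseudocount added before the two replicates were pooled.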
row,Binder,median log2 fold change
1,B1,0.00398
2,B2,0.282
3,B3,0.233
4,B4,-0.0713
5,B5,-0.271
6,B6,-0.0232
7,B7,-0.0172
8,B8,0.0938
9,B9,0.0817
10,B10,0.194
11,B11,0.216
12,B12,-0.222
13,B13,-0.319
14,B14,0.263
15,B15,0.298
16,B16,-0.237
17,B17,-0.295
18,B18,-0.00261
19,B19,0.0759
